From the supplement of paper PMC3334620
Over roughly 33,000 sequences, “E-score (-0.5 to 0.5)” has its median near -0.012; the highest 2% begin near 0.27. The list shows a part of the results.

target: T1, Vhr1 (UniProt P40522); assay: PBM E-score (8-mer binding enrichment) (E-score (-0.5 to 0.5)); higher = stronger / more preferred TF binding; most listed sequences are background and not binding sites; settings: protein concentration: 200 nM; construct: GST-full length
T1 sequence: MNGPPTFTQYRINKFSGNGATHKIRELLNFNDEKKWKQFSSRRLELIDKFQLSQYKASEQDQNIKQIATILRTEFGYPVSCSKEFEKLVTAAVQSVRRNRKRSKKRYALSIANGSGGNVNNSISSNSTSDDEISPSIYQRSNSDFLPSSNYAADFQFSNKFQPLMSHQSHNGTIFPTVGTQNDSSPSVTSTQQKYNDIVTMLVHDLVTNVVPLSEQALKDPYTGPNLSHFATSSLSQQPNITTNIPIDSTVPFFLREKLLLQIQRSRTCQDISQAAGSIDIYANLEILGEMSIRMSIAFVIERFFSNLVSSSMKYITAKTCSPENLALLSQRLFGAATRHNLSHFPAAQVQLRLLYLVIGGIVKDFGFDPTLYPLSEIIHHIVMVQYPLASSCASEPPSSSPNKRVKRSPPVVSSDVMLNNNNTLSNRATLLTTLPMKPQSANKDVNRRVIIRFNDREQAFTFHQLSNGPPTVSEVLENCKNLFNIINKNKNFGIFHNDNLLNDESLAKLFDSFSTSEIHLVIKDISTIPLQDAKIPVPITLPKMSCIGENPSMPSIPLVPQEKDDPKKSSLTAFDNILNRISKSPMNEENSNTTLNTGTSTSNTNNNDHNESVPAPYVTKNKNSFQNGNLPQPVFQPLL
Outline: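 Universal all-10-mer Agilent arrays, fresh or stripped once, were converted to double-stranded form by primer extension. GST-tagged yeast transcription factors from PURExpress in vitro transcription/translation, full-length or DNA-binding domain only, were applied at about 100-200 nM and detected with fluorescent anti-GST. After masliner normalisation, the Universal PBM Analysis Suite scored each ungapped eight-base word together with its reverse complement by E-score.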

Point of comparison: ACCTTACG, “PBM E-score” value -0.114. Against it:
- CGGTGGGA — higher, 0.151
- CCCACAAC — higher, -0.0836
- ATAGGCCA — lower, -0.159
- AAAACTCT — lower, -0.22
- CACTCGCA — higher, 0.0722
- AGACGTCC — higher, -0.106
- ATCTGAAA — higher, -0.0672
- CCCTGTAG — lower, -0.135
- CACCGGGG — higher, -0.0793
- GATACTGC — higher, 0.188
- ATGCAGCG — higher, -0.0944
- AAAACGAC — higher, -0.0474
- AGAATAGG — higher, 0.026
- AGAGGATA — lower, -0.168
- ATGATCCG — higher, 0.0961
- AGTGGTAC — higher, -0.0391
- CCTGCCAG — lower, -0.23
- ACGTTCCG — lower, -0.257
- GTTCCGGA — higher, 0.0125
- AATCCTAT — higher, 0.1
- CCAGGTTC — lower, -0.14
- CCCAATCC — higher, 0.0155
- CCATCAGC — higher, 0.0127
- GGAGACAA — higher, 0.151
- CTTTCCTC — lower, -0.244
- GCGACCCA — higher, 0.116
- CCCCCCGC — higher, -0.0279
- GGCAGGCC — lower, -0.214
- GCTGTGCA — higher, -0.0963
- CAAAGGTG — higher, 0.136
- GGCCAGCA — higher, -0.0819
- CAAGGGAG — higher, -0.00031
- AAGCCGGT — higher, -0.0262
- GCGGGAGC — higher, -0.0214
- ATCCCCAT — higher, 0.115
- ATGTATGC — higher, 0.181
- CCGTACGC — higher, -0.0297
- ATCTAATA — higher, 0.0551
- CCCCATCA — higher, -0.0252
- CAGCTATC — lower, -0.172
- ACTAGACA — higher, 0.148
- CGTAGATC — higher, -0.0658
- TATTGTGA — higher, 0.209
- AGCTTCGC — lower, -0.223
- CGTCCTAG — lower, -0.181
- AAAGACTA — higher, -0.109
- CTAGGGAC — higher, -0.0696
- CAGCCATA — higher, 0.0673
- CACAGAAC — higher, -0.0765
- GTGTCTCA — higher, 0.237
- AAGTCTGA — lower, -0.293
- CGAGGCCG — lower, -0.21
- CCACATGG — higher, 0.0595
- CACGTGTA — higher, 0.0359
- GACATCTA — higher, 0.0767
- AGGAGAAG — lower, -0.156
- CTTGTCAA — higher, -0.108
- AATAATAT — higher, 0.183
- AGCCATTC — higher, -0.00524
- AGTACGAC — higher, 0.183
- ACGCGAGC — higher, 0.0179
- AGCTGTTG — higher, -0.0227
- TCGAGTAA — higher, 0.0538
- AGGCGCCT — higher, 0.00322
- ATGAGAAG — higher, -0.0895
- ACGGGGAT — higher, 0.03
- AACGAATA — lower, -0.129
- CACCCTCG — higher, 0.0603
- GCAGTAGC — lower, -0.238
- TTGGAAAA — lower, -0.27
- AGGCAATA — higher, -0.0641
- CTTGGGTC — higher, 0.0407
- GAGGTCCA — higher, 0.00961
- CAAACTGG — higher, 0.0525
- CATATCAA — higher, 0.278
- GGCCCCAA — lower, -0.251
- CGCTAGGC — lower, -0.19
- AAGATAGA — higher, -0.104
- CAGGTATA — higher, 0.0578
- ACTTGCGG — lower, -0.185
- ACCAGCTG — higher, 0.0657
- TACGTACA — higher, 0.127
- AAGTCAGG — higher, 0.201
- CCTTATCG — higher, -0.0198
- GCTTCGCC — lower, -0.349
- AGGTACGC — higher, 0.164
- AGCCGAAT — higher, 0.142
- AACGCTGG — higher, 0.0312
- ACGTATTC — higher, 0.036
- CCATAGGA — higher, -0.0888
- TCCAGGAA — higher, 0.00501
- AAATTCAG — higher, -0.0308
- CACCCAAA — higher, 0.136
- ACCAATAA — higher, -0.0166
- CTGCGTAA — higher, -0.0215
- CTTTTGCA — higher, -0.101
- TCCCCTAA — higher, -0.0509
- TCGCAAGA — higher, -0.036
- CTTGACGC — lower, -0.183
- GTCGGAGA — higher, 0.0527
- ACTGCTGC — higher, 0.0846
- ATCCAGAG — higher, 0.113
- GTGCAAAA — lower, -0.15
- AGTCAGCG — higher, 0.347
- GAACCACC — higher, 0.225
- AGGAGACC — higher, 0.0147
- CGTGTGCC — higher, -0.0318
- GCAGCCCC — higher, 0.0417
- ATGGCGCG — higher, -0.108
- CCGTGCGC — higher, 0.0682
- AACGTCGG — higher, -0.0981
- ATAGCTTA — higher, -0.0267
- CATGATGC — higher, 0.0907
- ATGGCTAG — higher, 0.0908
- AGATGCAT — higher, 0.116
- CAACTCAG — higher, 0.0745
- GGATATTA — higher, 0.257
- CACGCGGG — higher, 0.00188
- CGAGGCTC — higher, -0.0648
- CTAGCGGA — lower, -0.199
- GTAAACCA — lower, -0.121
- ATTCGTAG — higher, -0.0281
- CTCCCCAC — higher, 0.0213
- AGTAATGC — higher, -0.0376
- AACCGAGA — higher, 0.0843
- ATCCTCTA — lower, -0.204
- GGTAAGAA — higher, -0.0756
- ATTTTCAG — lower, -0.144
- TCGACAAA — higher, -0.0716
- GCTAGCCC — lower, -0.273
- GACTATTA — higher, 0.0423
- TTTAAAAA — lower, -0.185
- CATGTAGG — higher, 0.0664
- ATGGATAA — higher, 0.182
- AGGGAATC — higher, 0.142
- ATAACGAT — higher, -0.00563
- ATGGCAGC — higher, 0.251
- AGGAAAAC — higher, -0.0654
- CTCACTGC — higher, -0.102
- CACGGAGG — the same, -0.114
- CATACGGG — lower, -0.183
- CAAGTATA — lower, -0.288
- AGGGAAGA — lower, -0.308
- AGCCGTCG — higher, 0.103
- AAATACTG — higher, -0.0503
- ACTGCGCG — higher, -0.00939
- AGGTGAGA — lower, -0.124
- CTAGTACA — higher, 0.119
- GGCTATTA — higher, 0.0345
- AGAGCCGA — higher, 0.0913
- AGCTTTCC — lower, -0.227
- ATCCGAAC — higher, 0.0441
- ACCACGAA — higher, 0.0839
- ACGTGATG — higher, 0.00697
- AAACAGCG — higher, 0.0426
- GTGGACGA — higher, -0.0286
- CGTACCAA — higher, 0.0513
- CTCTGTGA — higher, -0.0592
- AAAATGAC — higher, -0.0335
- ACCCTCGA — higher, -0.0541
- GTACAAGA — higher, 0.0464
- AGCTGTTA — higher, 0.00687
- AGAACCCT — lower, -0.14
- CAAATAGA — higher, 0.0696
- CTCCTAGA — higher, -0.058
- ATTGAGCA — higher, 0.0806
- AAGCTGTA — higher, 0.0468
- AACCTAGC — higher, -0.0285
- CCGTTGGA — lower, -0.165
- AGAGAGAG — higher, -0.0525
- GATTGTCA — higher, -0.0917
